Measurements from PubChem BioAssay AID504832 (National Center for Advancing Translational Sciences (NCATS), 2011).
About 18,000 (5.8%) of roughly 310,000 compounds were called active. Inconclusive means that the source gave no clear call. Such entries were picked first, then a sample of the others. The call rests on the fitted dose curve; in most records, active means well fitted inhibition curve with a large enough effect; inconclusive means small, poorly fitted or top-dose-only effect, or another doubt; inactive means no such curve, though single readings can be large or run the other way. Potencies of inconclusive entries are left out as doubtful fits.

Assay: Primary qHTS for delayed death inhibitors of the malarial parasite plastid, 48 hour incubation
Details: P. falciparum luciferase growth in erythrocytes; series mostly up to 28.7 µM
Procedure, shortened: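 Luciferase-expressing P. falciparum in infected erythrocytes (2% hematocrit, 0.1% parasitemia final) in RPMI 1640/0.5% Albumax were exposed to compound for 48 hours at 37 C, 5% CO2; growth read as luminescence.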
Potency means the concentration at half of the fitted maximal effect; tags describe the fitted curve by direction and shape.

Structure (SMILES)	Potency
Cn1c(CBr)c(C(=O)c2ccc([N+](=O)[O-])cc2)c(=O)n(C)c1=O	inactive
CCOc1cc(/C=N\NC(=O)c2ccc(NC(=O)C(C)(C)C)cc2)ccc1OC(=O)c1cccc(C)c1	inconclusive [inhibitor, partial curve, poor fit]
Cc1cc2oc(=O)cc(CN(C)Cc3ccc(OC(F)F)cc3)c2cc1Cl	inconclusive [inhibitor, single point]
CC(CCc1ccccc1)NC(=O)CNC(=O)COc1ccccc1 (stereo not drawn)	inactive
CCc1nc(CN2CCN(Cc3ccc(F)c(F)c3)C(CCO)C2)c(C)[nH]1 (stereo not drawn)	inconclusive [inhibitor, partial curve, poor fit]
COc1cc(NS(=O)(=O)c2cc3[nH]c(=O)c(=O)[nH]c3cc2C)cc(OC)c1OC	inconclusive [inhibitor, partial curve, poor fit]
CCCCNC(=O)CSc1nc(Cc2ccccc2)nc2ccccc12	inactive
CCCc1cc(N2CCN(C(=O)c3ccco3)CC2)n2c(nc3ccccc32)c1C#N	active: 11.7 µM
O=C(C[n+]1ccc(C(=O)c2ccccc2)cc1)Nc1ccc(C(F)(F)F)cc1	inconclusive [inhibitor, single point]
Cc1cc(C(=O)Nc2ccc(S(=O)(=O)N3CCOCC3)cc2)ccc1[N+](=O)[O-]	inconclusive [inhibitor, partial curve, poor fit]
CC(=O)c1cccc(NC(=O)COc2ccc(S(=O)(=O)N3CCCCC3)cc2)c1	inconclusive [inhibitor, partial curve]
COc1ccc(CCNC(=O)/C=C/c2ccc3ccccc3n2)cc1OC	inconclusive [inhibitor, partial curve]
Cn1cc(CNCc2cn[nH]c2-c2ccc(F)cc2)c(-c2ccc3c(c2)OCCO3)n1	inactive
O=C(O)CCC(=O)Nc1ccc(/C=C/C(=O)C2CC2)cc1	inactive
Cc1ccc2nc(NC(=O)CSc3nc(=O)n(CCCN(C)C)c4c3CCC4)sc2c1	inconclusive [inhibitor, single point]
COc1ccc(NC(=O)CSc2nccn2Cc2ccc(F)cc2)cc1	inactive
S=C(NCCc1ccccc1)NC1CC2CCC(C1)N2Cc1ccccc1 (stereo not drawn)	inconclusive [inhibitor, partial curve]
COc1ccc(/C=C/c2nc(S(=O)(=O)c3ccccc3)c(NCCCN(C)C)o2)cc1OC	active: 11.7 µM
CN(CC(=O)Nc1ccc(N2CCOCC2)cc1)Cc1cc(=O)n2ccsc2n1	inconclusive [inhibitor, single point]
CCC(=O)Oc1ccc(-c2cnc3ccccc3n2)cc1	inactive
COc1ccc2ccccc2c1/C=N/Nc1ccc(Cl)c(C(=O)O)c1	inactive
Cc1ccc(N=C(N)N=C(N)N)c(C)c1	inconclusive [inhibitor, single point]
CCN1CCN(C(=O)c2ccc3c(c2)N(Cc2ccccc2)C(=O)c2ccccc2S3=O)CC1 (stereo not drawn)	inconclusive [inhibitor, single point]
CCc1ccc(C2C3=C(CC(C)(C)CC3=O)Nc3c2c(=O)[nH]c2nc(C)nn32)cc1 (stereo not drawn)	inconclusive [inhibitor, single point]
Cc1csc(Sc2nc3c(c(=O)[nH]c(=O)n3C)n2CCCc2ccccc2)n1	inconclusive [inhibitor, single point]

Structure (SMILES)	Potency
CCOc1ccc(-n2c([S-])c(C(=O)Nc3ccc(S(=O)(=O)N4CCOCC4)cc3)[n+]3cc(C(N)=O)ccc23)cc1	active: 11.7 µM
Cc1ccc(CNC(=O)CCS(=O)(=O)c2cccc3nonc23)cc1	inactive
COC(=O)C1CN(C(=O)COc2ccc(Cl)c(C)c2)c2ccccc2O1 (stereo not drawn)	inconclusive [inhibitor, partial curve]
Cc1cccc(NC(=O)C2CCN(S(=O)(=O)c3cccc4nonc34)CC2)c1	inactive
CN(C)c1ccc(S(=O)(=O)N2CCCCC2)cc1NC(=O)CN1C(=O)NC2(CCCC2)C1=O	active: 13.1 µM
CC(C)(C)C(=O)NCCCC(=O)O	inconclusive [inhibitor, partial curve, poor fit]
Cc1nc(N2CCN(Cc3ccccc3)CC2)nc2c1C(=O)CCC2	inconclusive [inhibitor, single point]
CCc1ccc(NS(=O)(=O)c2cc3c(cc2C)n(C)c(=O)c(=O)n3C)cc1	inconclusive [inhibitor, single point]
CCN1CCc2[nH]c3ccccc3c2C1	inconclusive [inhibitor, single point]
O=c1oc2c(CN3CCOCC3)c(O)ccc2c2c1CCC2	inactive
COc1ccc(N(CC(O)Cn2c3ccccc3c3ccccc32)S(=O)(=O)c2ccccc2)cc1 (stereo not drawn)	inconclusive [inhibitor, partial curve, poor fit]
N#CCSc1nc(Nc2ccc3c(c2)OCO3)c2ccccc2n1	inconclusive [inhibitor, single point]
CCC(C)(C)n1nnnc1C(c1cc2cc(C)cc(C)c2[nH]c1=O)N1CCCC1 (stereo not drawn)	active: 5.86 µM
O=C(CN(C(=O)CNS(=O)(=O)c1ccc(F)cc1)C1CCCC1)NCc1ccco1	inactive
Cc1nn(C)c2ncc(C(=O)c3ccccc3O)cc12	inactive
CCOc1ccc(CCNC(=O)Nc2cccc(OC)c2)cc1OCC	inconclusive [inhibitor, partial curve]
O=C(/C=C/c1c(Cl)cccc1Cl)N1CCOCC1	inactive
CCOc1ccc(OCCC(=O)OCC(=O)Nc2cc(OCC)c(N3CCOCC3)cc2OCC)cc1	inconclusive [inhibitor, single point]
CC1CCN(S(=O)(=O)c2ccc(NN=C(C#N)C#N)cc2)CC1	inconclusive [inhibitor, partial curve]
O=C(C1CCN(S(=O)(=O)c2ccc(Br)s2)CC1)N1CCCCC1	inactive
O=C(COC(=O)c1ccc(O)cc1O)Nc1cc(-c2ccccc2)nn1-c1ccccc1	active: 11.7 µM
OCC[C@H]1C[C@H](O)[C@@H](O)[C@@]2(CCCCO2)O1	inactive
Cc1nc2ccc(C(=O)N3CCCC(CO)(Cc4ccc(F)cc4F)C3)cc2nc1C (stereo not drawn)	inconclusive [inhibitor, single point]
COc1ccc(OC)c(NC(=O)c2cccc(Cn3cc(Br)c([N+](=O)[O-])n3)c2)c1	inconclusive [inhibitor, partial curve, poor fit]
CN(CC(=O)Nc1ccc(F)cc1)C(=O)c1cccc(S(=O)(=O)N2CCN(c3ccc(F)cc3)CC2)c1	active: 11.7 µM

Structure (SMILES)	Potency
O=C(Nc1ccc(F)cc1)N(CCCN1CCOCC1)Cc1cc2cc3c(cc2[nH]c1=O)OCO3	active: 13.1 µM
CCOC(=O)N1CCN(Cc2nc3cc(NC(=O)c4cccs4)ccc3n2C)CC1	inconclusive [inhibitor, single point]
Cc1cc(NC(=O)C(C)SCC(=O)OCc2ccc([N+](=O)[O-])cc2)no1 (stereo not drawn)	inconclusive [inhibitor, single point]
CC(/C=N/n1c(-c2ccccc2)n[nH]c1=S)=C\c1ccco1	inactive
O=C(NNC(=O)c1csc(N2CCOCC2)n1)c1ccc(Cl)nc1	inconclusive [inhibitor, single point]
Cc1cc(/C=N/O)c(C)n1-c1cccc(Cl)c1	inconclusive [inhibitor, single point]
O=c1c(Cl)c(NCc2ccccc2)cnn1C12CC3CC(CC(C3)C1)C2	inconclusive [inhibitor, single point]
O=S(=O)(c1ccccc1)c1ncc(C(F)(F)F)cc1Cl	active: 10.4 µM
COc1cccc(CNC(=O)CCSCc2ccccc2F)c1	inactive
CCCCCC(=O)Nc1ccc(C2C(=O)c3ccccc3C2=O)cc1	active: 13.1 µM
O=C(NCCCl)Nc1ccc(Cl)c([N+](=O)[O-])c1	inactive
COC(=O)c1ccc(COc2cccc3c2CCN(Cc2ccccc2)C3=O)o1	inconclusive [inhibitor, partial curve, poor fit]
COC(=O)C1=C(C)N(c2ccc(C)c(C)c2)/C(=C/c2ccc(O)cc2)C1=O	inconclusive [inhibitor, single point]
CCC(C)c1ccc(O)c(N)c1 (stereo not drawn)	inconclusive [inhibitor, single point]
Cn1c(C(=O)NCc2ccccn2)cc2c(=O)n3ccccc3nc21	inactive
N/C(=N\NC(=O)Nc1ccc(Cl)cc1)c1ccccn1	inactive
O=C(COc1ccc2ccccc2c1)NNC(=O)c1cnccn1	active: 14.7 µM
CC1CC(=O)N(CC(=O)Nc2ccc3c(c2)OCCO3)c2ccccc2S1 (stereo not drawn)	inconclusive [inhibitor, partial curve, poor fit]
COc1ccc(OC)c(CNc2ccc([N+](=O)[O-])cc2C)c1	inconclusive [inhibitor, single point]
N#Cc1cc2ccccc2n2nnnc12	inactive
COc1ccc(C2=NOC(Cn3nc(-c4ccccc4)cc3C(=O)O)C2)cc1 (stereo not drawn)	inactive
COc1cccc(CSc2nnc(-c3ccncc3)n2N)c1	inactive
N#C/C(=C\c1ccc(O)c(O)c1)C(=O)c1ccc(O)c(O)c1	inconclusive [inhibitor, partial curve]
